# From PubChem BioAssay AID743255 (National Center for Advancing Translational Sciences (NCATS), 2014)
# The campaign covered roughly 390,000 compounds. About 910 (0.23%) were called active. Not shown: some 5% with an inconclusive outcome. The call rests on the fitted dose curve; in most records, active means well fitted inhibition curve with a large enough effect; inconclusive means small, poorly fitted or top-dose-only effect; inactive means no such curve, though single readings can be large or run the other way. Only a part is listed here, and it is no random draw.
# Target: Ubiquitin carboxyl-terminal hydrolase 1 (Homo sapiens) (UniProt O94782)
# UniProt O94782, sequence (O94782 whole entry, looked up): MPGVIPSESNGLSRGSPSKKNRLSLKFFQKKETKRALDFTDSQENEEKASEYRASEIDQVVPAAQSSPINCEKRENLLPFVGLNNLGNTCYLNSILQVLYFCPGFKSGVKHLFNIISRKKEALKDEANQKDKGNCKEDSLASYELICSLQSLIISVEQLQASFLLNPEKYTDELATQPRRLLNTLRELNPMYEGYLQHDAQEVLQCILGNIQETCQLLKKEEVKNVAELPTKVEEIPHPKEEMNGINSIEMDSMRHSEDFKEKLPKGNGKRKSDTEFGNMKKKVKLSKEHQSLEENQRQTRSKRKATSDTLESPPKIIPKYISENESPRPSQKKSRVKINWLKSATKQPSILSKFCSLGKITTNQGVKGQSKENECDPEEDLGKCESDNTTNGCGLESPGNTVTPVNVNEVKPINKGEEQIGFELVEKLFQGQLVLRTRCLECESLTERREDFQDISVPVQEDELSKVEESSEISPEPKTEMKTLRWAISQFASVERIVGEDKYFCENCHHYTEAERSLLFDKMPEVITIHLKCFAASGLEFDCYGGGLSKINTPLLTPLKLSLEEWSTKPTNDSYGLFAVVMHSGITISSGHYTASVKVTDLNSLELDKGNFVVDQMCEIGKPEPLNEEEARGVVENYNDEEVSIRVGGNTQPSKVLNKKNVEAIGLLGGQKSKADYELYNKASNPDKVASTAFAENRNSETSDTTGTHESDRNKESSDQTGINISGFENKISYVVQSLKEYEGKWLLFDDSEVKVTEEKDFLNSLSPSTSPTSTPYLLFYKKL
# Assay: Inhibitors of USP1/UAF1: Primary Screen; further: nearly all actives have a fitted effect of over 60% in size
# Details: recombinant USP1/UAF1, Ub-Rhodamine cleavage fluorescence; series mostly up to 57.1 µM; activity change, negative = inhibition: at the top concentration
# Description: Deubiquitinating enzymes (DUBs) are a class of enzymes that can cleave isopeptide bond formed between the C-terminal carboxylate of ubiquitin and a lysine side-chain amino group on the target protein. Among them, ubiquitin specific proteases (USPs) constitute the largest DUB family. Human USPs are emerging as promising targets for pharmacological intervention because of their connection to a number of human diseases, including prostate, colon and breast cancer (1, 2), pediatric acute lymphoblastic leukemia (3), and familial cylindromatosis (4). The advantage of inhibiting USPs lies in the potential specificity of therapeutic intervention that can lead to better efficacy and reduce nonspecific side effects. In a collaboration between the University of Delaware and the NIH Chemical Genomics Center, a high-throughput screen assay was developed to screen for USP1/UAF1 inhibitors. This miniaturized assay has a fluorescent read-out and is used to screen the NIH Molecular Libraries Small Molecule Repository (MLSMR) in order to identify a small molecule that inhibits USP1. NIH Chemical Genomics Center [NCGC] NIH Molecular Libraries Probe Centers Network [MLPCN] MLPCN Grant: DA030552 Assay Submitter (PI): Zhihao Zhuang, University of Delaware 1. Priolo, C., et al. (2006) The isopeptidase USP2a protects human prostate cancer from apoptosis. Cancer Res 66, 8625-8632 2. Popov, N., et al. (2007) The ubiquitin-specific protease USP28 is required for MYC stability. Nat Cell Biol 9, 765-774 3. De Pitta, C., et al. (2005) A leukemia-enriched cDNA microarray platform identifies new transcripts with relevance to the biology of pediatric acute lymphoblastic leukemia. Haematologica 90, 890-898 4. Kovalenko, A., et al. (2003) The tumour suppressor CYLD negatively regulates NF-kappaB signalling by deubiquitination. Nature 424, 801-805
# 3 microliters of reagents (buffer in columns 3 and 4 as negative control and 1nM USP1/UAF1 complex in columns 1, 2, and 5-48) are dispensed into Greiner black solid bottom 1536-well assay plates. Compounds are then transferred via Kalypsys pin tool equipped with 1536-pin array (10nl slotted pins, V&P Scientific, San Diego, CA). Following an incubation step of 15 min at room temperature, 1ul of Ub-Rho substrate (150nM final concentration) is added to initiate the reaction. The plates are immediately centrifuged at 1000 rpm for 15 seconds, and subsequently transferred to a ViewLux high-throughput CCD imager (PerkinElmer) wherein kinetic measurements of fluorescence are acquired using 480 nm excitation/540 nm emission filter set (6 reads every 60 seconds, see Table 1). All reagents are diluted in an assay buffer consisting of 50mM HEPES (pH 7.8), 0.5mM EDTA, 0.1 mg/ml BSA, 1mM TCEP, and 0.01% Tween-20.
# On the % scale 0 is the no-effect control and ±100 the full control effect; potency means the concentration at half of the fitted maximal effect.
SMILES,"activity change, negative = inhibition",Potency
Cc1ccc(N=Nc2c(O)[nH]c(=O)[nH]c2=O)cc1S(=O)(=O)Nc1ccc(Br)cc1,inactive: 41.9%,
COc1cccc(N2C(=O)NC(=O)/C(=C\c3cn(C)c4ccccc34)C2=O)c1,,active: 11.2 µM
O=c1[nH]c(=S)n(-c2ccc(Br)cc2)c(O)c1C=Nc1ccc(N2CCOCC2)cc1,,active: 31.6 µM
C[C@]12CC[C@@H](O)C[C@H]1CC[C@@H]1[C@@H]2CC[C@]2(C)C(=O)CC[C@@H]12,inactive: 6.66%,
C#CCN1C(=O)S/C(=C\c2ccc(N3CCOCC3)cc2C)C1=O,inactive: 148%,
Cn1ccnc1P(=S)(c1nccn1C)c1nccn1C,inactive: -2.1%,
O=c1cc(C(F)(F)F)c2cc3c4c(c2o1)CCCN4CCC3,inactive: 375%,
COc1cc(C2c3cc4c(cc3C(O)C3COC(=O)C23)OCO4)cc(OC)c1OC (stereo unspecified),inactive: -15.3%,
C[C@]12CCC(=O)C=C1CC[C@@H]1C2[C@H](O)C[C@]2(C)C(=O)CCC12 (stereo partly specified),inactive: -19.1%,
COc1ccccc1N1CCN(S(=O)(=O)c2ccc3c(c2)oc(=O)n3C)CC1,inactive: -18.6%,
CCn1nc(-c2cccs2)nc2c(=O)n(C)c(=O)nc1-2,,active: 0.224 µM
CCOC(=O)C1CCCN(c2ccc([N+](=O)[O-])c3nonc23)C1 (stereo unspecified),,active: 25.1 µM
CN1C2CC(OC(=O)C(CO)c3ccccc3)CC1C1OC12 (stereo unspecified),,inactive
COc1ccc2cc1Oc1ccc(cc1)C[C@H]1c3cc(c(OC)cc3CCN1C)Oc1c(OC)c(OC)cc3c1[C@H](C2)N(C)CC3,inactive: -21.9%,
C[C@@H]1CN([C@@H](C)CO)C(=O)CCCn2nncc2CO[C@@H]1CN(C)C(=O)Oc1cccc2ccccc12,inactive: -18.3%,
C[C@H]1CN([C@@H](C)CO)C(=O)c2cccc(NC(=O)c3ccc(-c4nccs4)cc3)c2O[C@@H]1CN(C)C(=O)Nc1cccc2ccccc12,inactive: -23.5%,
CCCCCCCCCCCCCCCC[n+]1ccccc1,inactive: -12.9%,
COc1ccc2c(c1OC)C(=O)O[C@H]2[C@@H]1c2cc3c(cc2CCN1C)OCO3,inactive: 17.6%,
C[C@]12CCC3C(CC[C@@H]4C[C@H](O)CC[C@]34C)C1CCC2=O (stereo partly specified),inactive: -7.67%,
CCN(CC)c1ccc(N=Cc2c(O)n(CCC3=CCCCC3)c(=O)[nH]c2=O)cc1,inactive: 193%,
CN(C)[C@@H]1C(=O)C(C(N)=O)=C(O)[C@@]2(O)C(=O)C3=C(O)c4c(O)cccc4[C@@](C)(O)C3[C@H](O)C12 (stereo partly specified),inactive: -20.5%,

SMILES,"activity change, negative = inhibition",Potency
CCCC[N+]1(C)C2CC(OC(=O)C(CO)c3ccccc3)CC1C1OC12 (stereo unspecified),inactive: -24.5%,
C[C@@H]1CCC2[C@@H](C)C(=O)O[C@@H]3OC4(C)CCC1[C@@]23OO4 (stereo partly specified),inactive: 28.6%,
COc1ccc(OC(=O)N(C)C[C@H]2OCc3cnnn3CCCC(=O)N([C@H](C)CO)C[C@H]2C)cc1,inactive: -3.43%,
Cc1ccc(S(=O)(=O)N(C)C[C@H]2Oc3cc(Br)ccc3S(=O)(=O)N([C@H](C)CO)C[C@@H]2C)cc1,inactive: -18.1%,
COc1ccc(-n2c(/C=C3\C(=O)Nc4ccccc43)nc3ccccc3c2=O)cc1,inactive: -14.2%,
CC(C)C[C@H]1C(=O)N2CCC[C@H]2[C@]2(O)O[C@](NC(=O)[C@@H]3C=C4c5cccc6[nH]cc(c56)C[C@H]4N(C)C3)(C(C)C)C(=O)N12,,active: 17.8 µM
[O-]c1ccccc1-[n+]1c(-c2ccccc2)cc(-c2ccccc2)cc1-c1ccccc1,inactive: -14.7%,
C[C@]12CC[C@H](O)C[C@H]1CC[C@@H]1[C@@H]2CC[C@]2(C)C(=O)CC[C@@H]12,inactive: -13.4%,
COc1cc2c(c(OC)c1OC)-c1ccc(O)c(=O)cc1C(NC(C)=O)CC2 (stereo unspecified),inactive: -18.8%,
COC(=O)C1=CO[C@@H](O[C@@H]2O[C@H](CO)[C@@H](O)[C@H](O)[C@H]2O)C2C(CO)=CCC12 (stereo partly specified),inactive: -26.3%,
CC(C)c1ccc(C(c2c(O)c3ccccc3oc2=O)c2c(O)c3ccccc3oc2=O)cc1,,active: 28.2 µM
Cc1ccc(OC(=O)N(C)C[C@@H]2OCc3cnnn3CCCC(=O)N([C@@H](C)CO)C[C@H]2C)cc1,inactive: -14.7%,
C[C@]12CCC3C(CC[C@@H]4C[C@@H](O)CC[C@]34C)C1CC[C@@H]2O (stereo partly specified),inactive: -20.7%,
Cc1ccc([C@H]2C[C@@H](n3cc(C4CC4)nn3)[C@H](O)CN2Cc2cccs2)cc1,inactive: -0.951%,
COc1ccc2c(c1OC)CN1CCc3cc4c(cc3C1C2)OCO4 (stereo unspecified),inactive: -13.2%,
COc1ccc(OC)c(N=Cc2c(O)n(Cc3ccccc3)c(=S)[nH]c2=O)c1,,active: 28.2 µM
Oc1ccc2c3c1O[C@H]1[C@@H](O)CC[C@@]4(O)[C@@H](C2)N(CC2CCC2)CC[C@]314,inactive: -13.7%,
C[C@H]1COC(=O)[C@@H](Cc2ccc(F)cc2)CC/C=C/C[C@H](CC(=O)N(CCO)Cc2ccccc2)C(=O)N1,inactive: -16.8%,
Cc1ccc(OC(=O)N(C)C[C@H]2OCc3cnnn3CCCC(=O)N([C@@H](C)CO)C[C@H]2C)cc1,inactive: 1.81%,
CC1CCC2C(C)C(=O)OC3OC4(C)CCC1C32OO4 (stereo unspecified),inactive: -7.81%,
